Test results reported in PubChem BioAssay AID624417 (National Center for Advancing Translational Sciences (NCATS), 2012).
About 6,400 (1.6%) of roughly 410,000 compounds were called active. This list was built around the results that the source calls inconclusive (neither active nor inactive); the mix of calls is not that of the screen. The call rests on the fitted dose curve; in most records, active means well fitted inhibition curve with a large enough effect; inconclusive means small, poorly fitted or top-dose-only effect; inactive means no such curve, though single readings can be large or run the other way. Potencies of inconclusive entries are doubtful fits and often do not repeat.

Target: Glucagon-like peptide 1 receptor (Homo sapiens) (UniProt P43220)
Test: qHTS of GLP-1 Receptor Inverse Agonists (Inhibition Mode); further: nearly all actives have a fitted effect of over 55% in size
Conditions: HEK293 GLP-1R CRE-luciferase, luminescence, 24 h, GLP-1R form is constitutively active; activity change, negative = inhibition: at 38.3 µM (top of the series) unless noted
Outline: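 HEK293 cells stably co-expressing a cAMP-responsive luciferase reporter and constitutively active GLP-1R were seeded, incubated 12 h, then exposed to compounds for 24 h at 37 C. Luminescence was read 12 min after detection reagent; inverse agonists lower signal.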
On the % scale 0 is the no-effect control and ±100 the full control effect; potency means the concentration at half of the fitted maximal effect; tags describe the fitted curve by direction and shape.

Sequence of UniProt P43220 (P43220 whole entry, looked up): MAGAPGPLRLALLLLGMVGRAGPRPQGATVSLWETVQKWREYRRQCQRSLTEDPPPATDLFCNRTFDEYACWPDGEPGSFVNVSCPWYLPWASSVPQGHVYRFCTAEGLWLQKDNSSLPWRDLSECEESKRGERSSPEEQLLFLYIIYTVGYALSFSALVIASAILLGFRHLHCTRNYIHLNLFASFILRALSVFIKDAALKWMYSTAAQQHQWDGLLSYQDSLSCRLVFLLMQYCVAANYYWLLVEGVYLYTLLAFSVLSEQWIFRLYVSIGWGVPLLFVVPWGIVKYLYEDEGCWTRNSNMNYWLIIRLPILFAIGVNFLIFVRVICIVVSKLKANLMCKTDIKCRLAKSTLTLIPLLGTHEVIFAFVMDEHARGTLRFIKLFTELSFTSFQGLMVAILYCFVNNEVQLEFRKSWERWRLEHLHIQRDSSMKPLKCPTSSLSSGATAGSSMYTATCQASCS

Potency, inconclusive:
COc1ccccc1-c1nnc(SCC(=O)c2ccc(F)cc2)n1-c1ccccc1 17.8 µM [inhibitor, partial curve, poor fit]
C/C(CC(=O)Nc1cccc2c1CCCC2)=N\NC(=O)COc1ccccc1 15.8 µM [inhibitor, single point]
CCCN(CCC)CCNC(=O)c1cc(-c2ccc(Br)s2)nc2ccccc12 28.2 µM [inhibitor, single point]
COc1ccc(C)cc1S(=O)(=O)Nc1ccccc1C 12.6 µM [inhibitor, partial curve, poor fit]
COc1ccc(N2CCN(C(=O)COC(=O)c3cccc(S(=O)(=O)Nc4cccc(C)c4)c3)CC2)cc1 10 µM [inhibitor, partial curve, poor fit]
CCc1cccc(NC(=O)C(CC(C)C)NS(=O)(=O)c2ccc3c(c2)oc(=O)n3C)c1 (stereo not given) 7.08 µM [inhibitor, partial curve]
COc1ccccc1CN1CCC(CNC(=O)c2cnn(-c3ccc(C)c(C)c3)c2C2CCN(C(=O)OC(C)(C)C)CC2)CC1 25.1 µM [inhibitor, single point]
Cc1cccc(CCNC(=O)CCc2nc(-c3ccccc3F)no2)c1 11.2 µM [inhibitor, partial curve, poor fit]
CCC/C=C1/CCCOC(C(=O)NCc2ccccc2)(C(F)(F)F)C1 (stereo not given) 28.2 µM [inhibitor, single point]
Cc1cc(C)cc(NC(=O)CCn2cnc3cc(C)c(C)cc32)c1 12.6 µM [inhibitor, partial curve, poor fit]
Cc1nc(-c2cccc(S(=O)(=O)N3CCCCCC3)c2)cs1 28.2 µM [inhibitor, single point]
CC(C)CN(CC(C)C)S(=O)(=O)N1CCC(C(=O)NCc2ccc(F)cc2)CC1 28.2 µM [inhibitor, single point]

Activity change, negative = inhibition, inactive:
COC(=O)N1C(=O)[C@](Cc2ccccc2)(c2ccccc2)N1C(=O)OC -1.47%
COC(=O)c1oc2ccc(Br)cc2c1NC(=O)CCN1CCOCC1 -4.52%
CCOc1cc(NS(=O)(=O)c2ccccc2)c(OCC)cc1NC(=O)c1ccco1 -16%
CC(C)(O)C#Cc1ccc(C(=O)NCCC(=O)O)s1 12.8%
Cc1ccc(/C=C2/NC(=O)N(c3ccccc3)C2=O)o1 0%
COc1ccc(Cc2nnc(SCC(=O)Nc3ncc(C)s3)o2)cc1 -0.236%
Cc1ccc(C(=O)NCCOc2cccc(C)c2)cc1 0%
Clc1ccc(-c2cccc3nccn23)cc1 13%
